# Data taken from the antibiotic and cytotoxicity screens of Wong et al. (2023).
# The list shows a part of the results.
# Tested on: HSkMC (human skeletal muscle cells)
# Assay: cytotoxicity call (relative viability < 0.9)
# Conditions: 10 µM
row,SMILES,cytotoxicity call
1,COc1ccc(S(=O)(=O)N(C)C[C@@H]2Oc3ncc(-c4ccncc4)cc3C(=O)N([C@@H](C)CO)C[C@H]2C)cc1,inactive
2,C[C@@H]1CN([C@H](C)CO)S(=O)(=O)c2ccc(C#Cc3ccc(F)cc3)cc2O[C@H]1CN(C)S(=O)(=O)c1ccc(F)cc1,inactive
3,CO[C@H](CN(C)S(=O)(=O)c1ccc(C)cc1)[C@H](C)CN([C@@H](C)CO)S(=O)(=O)c1cccc(Cl)c1,inactive
4,C[C@@H]1CCCCO[C@H](CN(C)C(=O)NC2CCCCC2)[C@H](C)CN([C@H](C)CO)C(=O)c2cc(NC(=O)Nc3cccc4ccccc34)ccc2O1,inactive
5,C[C@H](CO)N1C[C@H](C)[C@H](CN(C)C(=O)Nc2ccc(C(F)(F)F)cc2)Oc2ccc(NC(=O)Nc3ccc(F)cc3)cc2C1=O,active
6,C[C@@H]1CN([C@@H](C)CO)C(=O)c2ccccc2-c2ccccc2CO[C@@H]1CN(C)C(=O)Nc1cccc(C(F)(F)F)c1,inactive
7,COc1ccc(-c2cnc3c(c2)C(=O)N([C@H](C)CO)C[C@H](C)[C@H](CN(C)S(=O)(=O)c2cccc(OC)c2)O3)cc1,inactive
8,CN(C)CC(=O)N[C@H]1CC[C@H](CCNC(=O)C2CCC2)O[C@H]1CO,inactive
9,C[C@H](CO)N1C[C@H](C)[C@H](CN(C)S(=O)(=O)c2ccc(F)cc2)Oc2ccc(NC(=O)c3ccncc3)cc2CC1=O,inactive
10,O=C(C[C@H]1C[C@H]2c3cc(NC(=O)NC4CCCC4)ccc3O[C@H]2[C@H](CO)O1)NCCN1CCCCC1,inactive
11,N[C@H](Cc1cnc[nH]1)C(=O)O,inactive
